Measured values taken from PubChem BioAssay AID2546 (National Center for Advancing Translational Sciences (NCATS), 2010).
Hit rate of the full screen: of about 310,000 compounds, about 11,000 (3.5%) were called active. The inconclusive results got no clear call from the source; some entries with a clear call stand among them for comparison. Calls come from the whole dose curve; as a rule, active = well fitted inhibition curve with a large enough effect; inconclusive = small, poorly fitted or top-dose-only effect, or effect the other way; inactive = flat fitted curve, though single readings scatter. No potency is given beside an inconclusive call; the fits are too rough.

Test: VP16 counterscreen qHTS for inhibitors of ROR gamma transcriptional activity;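 note: Gal4-VP16 expression switched on by copper sulfate through the metallothionein promoter; nearly all actives have a fitted effect of over 50% in size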
Conditions: Drosophila S2 Gal4-VP16 UAS-luciferase, luminescence, 20 h; activity, negative = inhibition: at 53.6 µM (top of the series)
% is set by controls: 0 for no effect and ±100 for the full control effect; potency is the fitted concentration of half-maximal effect; tags give direction and shape of the fitted curve.

SMILES | Potency | activity, negative = inhibition
CCOC(=O)Cn1c(=O)c2c(nc(Br)n2Cc2ccccc2Cl)n(C)c1=O | inconclusive [activator, single point] | 
N=c1c2c(ncn1Cc1ccco1)Oc1c(ccc3ccccc13)C2c1ccccc1 (configuration not stated) | inconclusive [inhibitor, single point] | 
O=C(CCN1CCN(CC(=O)Nc2ccccc2Cl)CC1)Nc1ccccc1F |  | inactive: 3.9%
COc1ccc(NC(=O)Nc2sc(NS(=O)(=O)c3ccccc3)nc2C)cc1 |  | inactive: -19.5%
O=c1oc2ccc(Cl)cc2nc1/C=C(\O)c1cccs1 | active: 11.2 µM | 
CCOC(=O)c1ccc(NC(=O)c2nc[nH]c2C(=O)N[C@@H](Cc2ccccc2)C(=O)OC(C)(C)C)cc1 | active: 7.08 µM | 
CCOc1ccc(NC(=O)c2ccc(NC(=S)NC3CCCCC3)cc2)cc1 | inconclusive [inhibitor, single point] | 
COC(=O)C1=C(C)NC(=S)N(C(C)=O)C1c1ccccc1 (configuration not stated) | inconclusive [inhibitor, single point] | 
Clc1cccc(CSc2nnc(-c3ccccn3)n2Cc2ccco2)c1 | inconclusive [inhibitor, single point] | 
O=C(N/N=C/c1ccc2nccnc2c1)c1ccccc1O | inconclusive [inhibitor, partial curve] | 
O=C(O)c1ccccc1Nc1cc(Cl)cc(Cl)c1 |  | inactive: -14.6%
CCN(CC)CCn1c(NC(=O)c2ccc(C)cc2)nc2ccccc21 | inconclusive [inhibitor, single point] | 
Cc1ccc2c(CNCc3ccco3)cc(=O)oc2c1 | inconclusive [activator, full curve, poor fit] | 
Fc1cccc2sc(Nc3nc4cc5c(cc4s3)OCO5)nc12 | active: 7.08 µM | 
Cn1c(/C=N/Nc2nc3ccccc3[nH]2)nc2ccccc21 | active: 12.6 µM | 
NS(=O)(=O)c1ccc(NC2=CC(c3ccc([N+](=O)[O-])cc3)N(c3ccc(S(N)(=O)=O)cc3)C2=O)cc1 (configuration not stated) |  | inactive: 10.3%
CCN1CCN(C(=O)c2ccc3c(c2)c(C)c(C)n3Cc2ccccc2)CC1 | inconclusive [inhibitor, partial curve] | 
Cc1ccc(-c2nc3ccccn3c2Nc2ccccc2)o1 | inconclusive [inhibitor, single point] | 
Cc1ccc(C(C)C)c(OCC(=O)N/N=C/c2cccn2C)c1 | inconclusive [inhibitor, single point] | 
CC(C)CCOc1ccc(/C=N/N2C(=O)CSC2=S)cc1 | inconclusive [inhibitor, single point] | 
Cc1c(C(=O)c2ccc([N+](=O)[O-])cc2)c(=O)n(C)c(=O)n1C |  | inactive: -4.39%
COC(=O)CSc1cc(SCC(=O)OC)c(C#N)c(SCC(=O)OC)c1 |  | inactive: -0.32%
CC(=O)C(Sc1nc(N2CCOCC2)nc(N2CCOCC2)n1)C(=O)Nc1ccccc1 (configuration not stated) | inconclusive [activator, partial curve] | 
Cc1ccc(C)c(NC(=O)Cc2nc(CCl)cs2)c1 | inconclusive [activator, single point] | 

SMILES | Potency | activity, negative = inhibition
C=CCn1cc(C(=O)OC)c(=O)c2cc(S(=O)(=O)N(CC)CC)ccc21 | inconclusive [inhibitor, single point] | 
C=CCSc1ncc(-c2ccccc2)cn1 | inconclusive [activator, single point] | 
CC(=O)NCCN1C(=O)S/C(=C\c2cccs2)C1=O | inconclusive [activator, single point] | 
O=C(CCCN1C(=O)/C(=C\c2ccco2)SC1=S)Nc1cccc2ccccc12 | inconclusive [inhibitor, single point] | 
O=c1c2sccc2nc(SCc2ccc([N+](=O)[O-])cc2)n1Cc1ccccn1 | inconclusive [inhibitor, single point] | 
COc1ccc(NC(=O)c2ccccc2F)cc1Cl | inconclusive [activator, single point] | 
CCOc1ccc(CNC(=O)c2ccc3nc(N4CCOCC4)sc3c2)cc1 | inconclusive [inhibitor, single point] | 
CCc1ccc(OCCCCN(C)Cc2ccccc2)cc1 |  | inactive: -6.11%
CCOC(=O)N1CCC(N2Cc3cccc(C(=O)Nc4ccccc4OC)c3C2=O)CC1 |  | inactive: -1.19%
CCOc1ccccc1CN1CCNC(=O)C1CC(=O)NCc1ccccn1 (configuration not stated) | inconclusive [inhibitor, single point] | 
CCOC(=O)C1(Cc2cccc(OC)c2)CCN(C/C=C/c2ccc(OC)cc2)CC1 | inconclusive [inhibitor, single point] | 
CC(=O)c1c(C)[nH]c(C(=O)COc2cc(C)ccc2C(C)C)c1C |  | inactive: -2.11%
C/C(=N\Nc1ccc([N+](=O)[O-])cc1[N+](=O)[O-])c1cc2c(ccc3ccccc32)oc1=O |  | inactive: -4.1%
CC(NC(=O)CCc1nc2cc(S(=O)(=O)N3CCOCC3)ccc2n1C)c1ccc(S(N)(=O)=O)cc1 (configuration not stated) |  | inactive: 9.18%
COc1ccc(C2=CC(c3cccc(OC)c3)n3nnnc3N2)cc1 (configuration not stated) | inconclusive [inhibitor, single point] | 
Cn1c(SCc2cccc(Br)c2)nc2ccccc2c1=O | inconclusive [inhibitor, single point] | 
CCCn1nc(NC(=O)C2CCCO2)c2cc3cc(C)ccc3nc21 (configuration not stated) | inconclusive [inhibitor, single point] | 
O=C(N/N=C/c1ccc(N2CCOCC2)o1)c1ccccc1[N+](=O)[O-] | inconclusive [inhibitor, single point] | 
COc1cc(N/N=C(\C)c2ccc(N)cc2)nc(-c2ccccc2)n1 | inconclusive [activator, single point] | 
CCN(CC)c1ccc(/C=c2\sc3nc4ccccc4n3c2=O)c(O)c1 | inconclusive [inhibitor, single point] | 
Fc1cccc(Nc2nc(N3CCOCC3)nc(N3CCOCC3)n2)c1 |  | inactive: -9.89%
COc1ccc(CCNC(=O)c2nonc2N)cc1 | inconclusive [activator, partial curve] | 
CN(C)c1ccc(C(=S)Nc2ccccc2)cc1 | inconclusive [inhibitor, single point] | 
Cc1cc(C)c(CSc2ncc(-c3ccc([N+](=O)[O-])cc3)[nH]2)c(C)c1 | active: 7.08 µM | 

SMILES | Potency | activity, negative = inhibition
O=C(Nc1nnc(-c2ccccn2)o1)c1cccc(Cl)c1 | active: 1 µM | 
Cc1cc(C(=O)OCC(=O)N2c3ccccc3CC2C)c(C)o1 (configuration not stated) | inconclusive [activator, full curve, poor fit] | 
CC1=NN(C(=O)CCCc2ccccc2)C(O)(C(F)(F)F)C1 (configuration not stated) | inconclusive [inhibitor, partial curve, poor fit] | 
CC(=O)C1=C(O)C(=O)N(c2cc(C(C)(C)C)on2)C1c1ccc(C(C)C)cc1 (configuration not stated) |  | inactive: 7.49%
CC1CC(C)CN(C(=S)NC2CCCCC2)C1 (configuration not stated) | inconclusive [inhibitor, single point] | 
CCOc1ccc(NC(=O)CSc2ccc(-c3ccccn3)nn2)cc1 |  | inactive: -10.8%
COc1cc(/C=C/c2ccc3cccc(O)c3n2)cc(OC)c1OC | inconclusive [inhibitor, partial curve] | 
CCCCNC(=O)CSc1nc2ccc(NC(=O)CSc3nnc(N)s3)cc2s1 | inconclusive [inhibitor, single point] | 
Cc1cc(C)cc(Oc2nc(C(F)(F)F)nc3ccccc23)c1 |  | inactive: -6.97%
COc1cccc(NC(=S)N(CCc2c(C)[nH]c3ccccc23)Cc2ccco2)c1 | inconclusive [inhibitor, single point] | 
Cc1ccc2c(C)nc(Nc3nc(CSc4nnnn4-c4ccccc4)cc(=O)[nH]3)nc2c1 | inconclusive [inhibitor, partial curve] | 
CSc1ccccc1OCc1cc(C(=O)NCCc2ccco2)no1 | inconclusive [activator, full curve, poor fit] | 
CCCn1c(C(C)Nc2nc(-c3ccc(Cl)c([N+](=O)[O-])c3)cs2)nc2ccccc21 (configuration not stated) | inconclusive [inhibitor, single point] | 
CCn1cc(/C=C/C(=O)Nc2c(C)nn(Cc3ccccc3C)c2C)cn1 | inconclusive [inhibitor, single point] | 
COc1cc(-c2nnc(COC(=O)CSc3cc(C)c4ccccc4n3)o2)cc(OC)c1OC |  | inactive: -6.04%
O=C(NC(=S)NNC(=O)c1ccc(Cl)cc1Cl)c1cccnc1 | active: 20 µM | 
CC(C)Cc1cc(C(C)(C)C)ccc1OC(=S)N(C)C |  | inactive: 1.28%
O=C(COc1ccccc1Cl)NC(=S)N1CCc2ccccc21 | active: 1.12 µM | 
S=C(N/N=C/c1ccc2c(c1)OCO2)NC1CC2CCC1C2 (configuration not stated) | active: 3.16 µM | 
C=CCn1c(O)c(N=NC(=S)Nc2ccc(OC)cc2)c2ccccc21 | active: 3.98 µM | 
Cc1cc2ccccn2c1C(=O)c1ccc(Cl)cc1 | active: 15.8 µM | 
CCN1CCN(c2ccc(NC(=O)c3ccc4c(c3)[nH]c(=O)n4Cc3ccc(F)cc3)cc2)CC1 |  | inactive: -7.04%
CSC1=N/C(=C\c2ccccc2)C(=O)N1C | inconclusive [inhibitor, single point] | 
CCn1cc(/C=N\NC(=O)c2cc(-c3ccccc3OC)nc3ccccc23)c(C)n1 | inconclusive [inhibitor, single point] | 
